The list shows a part of the results. Shown are side measurements of this screen, not its main read-out; they come without a call.
Assays:
Assay in all cases: Primary Screen for Target Class Profiling of Small Molecule Inhibitors of Methyltransferases
[1] = molecular target: Glycine N-methyltransferase (Homo sapiens) (UniProt Q14749); settings: purified enzyme, MTase-Glo SAH luminescence; measured here: GNMT inhibition; at 40 µM; stronger effect = lower value
How it was run: (§1)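 Each enzyme was assayed with SAM and its substrate. SAH formation detected by MTase-Glo luminescence; single-point 40 uM screen[…].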

[2] = molecular target: Guanidinoacetate N-methyltransferase (Homo sapiens) (UniProt Q14353); settings: purified enzyme, MTase-Glo SAH luminescence; measured here: GAMT inhibition; at 40 µM; stronger effect = lower value
How it was run: as §1

[3] = molecular target: Histamine N-methyltransferase (Homo sapiens) (UniProt P50135); settings: purified enzyme, MTase-Glo SAH luminescence; measured here: HNMT inhibition; at 40 µM; stronger effect = lower value
How it was run: as §1

[4] = molecular target: Nicotinamide N-methyltransferase (Homo sapiens) (UniProt P40261); settings: purified enzyme, MTase-Glo SAH luminescence; measured here: NNMT inhibition; at 40 µM; stronger effect = lower value
How it was run: as §1

[5] = molecular target: Phenylethanolamine N-methyltransferase (Homo sapiens) (UniProt P11086); settings: purified enzyme, MTase-Glo SAH luminescence; measured here: PNMT inhibition; at 40 µM; stronger effect = lower value
How it was run: as §1
% is set by controls: 0 for no effect and ±100 for the full control effect.

SMILES	activity change, negative = inhibition [1]	activity change, negative = inhibition [2]	activity change, negative = inhibition [3]	activity change, negative = inhibition [4]	activity change, negative = inhibition [5]
COc1cc(/C=C/CO)ccc1O[C@@H]1O[C@H](CO)[C@@H](O)[C@H](O)[C@H]1O	6.32%	6.43%	10%	-5.21%	4.3%
COc1ccc(N(C(=O)c2ccc(C)cc2)S(=O)(=O)c2ccc3c(c2)n(C)c(=O)n3C)cc1	-5.77%	7.25%	-6.04%	-8.51%	-2.83%
c1ccc(-c2noc(CC3CCOC4(CCN(Cc5cccnc5)CC4)C3)n2)cc1 (configuration not stated)	-3.27%	1.31%	-0.127%	-9.92%	-1.44%
CN(CC1COCCO1)S(=O)(=O)Nc1ccc2ccc3ncc(-c4cnn(C)c4)cc3c(=O)c2c1 (configuration not stated)	-15%	–	-3.84%	–	–
CCC(C)NC(=O)c1ccc2c(=O)n(C3CC3)c3nn(CC(=O)NCc4ccccc4)c(=O)n3c2c1 (configuration not stated)	-3.04%	0%	0.694%	-8.25%	-17.5%
COc1ccc(OC)c(NS(=O)(=O)c2ccc3c(c2)NC(=O)C(C)C(=O)N3)c1 (configuration not stated)	-1.79%	2.17%	-2.21%	4.6%	-5.76%
O=S(=O)(NC1CCC(c2cc(F)ccc2F)(S(=O)(=O)c2ccc(Cl)cc2)CC1)C(F)(F)F (configuration not stated)	0.437%	1.17%	9.21%	-28.6%	-13.8%
CNC(=O)[C@@H]1C[C@@H](O)CN1C1CCN(C(=O)CCc2nc3ccccc3s2)CC1	-4.39%	0.25%	-2.09%	-3.43%	-7.48%
CC(C)CNC(=O)c1ccc2c(=O)n(C(C)C)c3nn(Cc4ccc(Cl)cc4)c(=O)n3c2c1	-1.38%	0.588%	6.52%	1.81%	3.33%
CC(C)c1cnn2c(NCc3ccccc3)cc(N[C@@H](CO)[C@H](O)CO)nc12	3.37%	5.85%	10.9%	-9.25%	8.01%
NS(=O)(=O)c1ccc(NC(=O)Nc2ccc(F)cc2)cc1	-2.21%	4.4%	10.3%	-10.3%	2.58%
COCC(=O)NC1(Cc2cc(-c3ccc(OC)cc3)on2)COC1	-6.5%	-4.61%	-1.62%	-6.48%	9.36%
CC(C)CCNC(=O)C1c2c(n(C)c3ccccc23)SCC(=O)N1Cc1ccc(F)cc1 (configuration not stated)	7.86%	4.3%	3.5%	-5.77%	6.32%
C=CCn1c(=O)c2ccc(C(=O)NC(C)C)cc2n2c(=O)n(CC(=O)Nc3cc(C)cc(C)c3)nc12	4.64%	0.404%	5.57%	6.26%	3.85%
CC1(C(=O)NC2CCCCC2)Cn2c(nc3ccccc32)C(=O)N1Cc1ccccc1Cl (configuration not stated)	3.55%	4.67%	6.92%	-2.69%	1.8%
CC(=O)OC1C(O)CC2(C)C(CCC(C)C23Cc2c(O)cc(CO)c(C=O)c2O3)C1(C)C (configuration not stated)	-2.52%	3.76%	8.65%	-14.4%	-8.75%
COC(=O)CCNC(=O)N1Cc2c(sc3c2CCCC3)-n2cccc2C1c1cccc(C)c1 (configuration not stated)	-3%	0%	0.723%	-6.79%	-3.32%
CNC(=O)[C@@H]1CN(C(=O)Cn2nc(C(F)(F)F)cc2C)C[C@H]1CO	-1.6%	2.25%	1.48%	4.13%	15.5%
CCc1ccc(NC(=O)Cn2nc3n(c2=O)CCCC3)cc1	0.866%	-4.4%	1.14%	-0.228%	6.3%
CCC1(O)CC2CN(CCc3c([nH]c4ccccc34)[C@@](C(=O)OC)(c3cc4c(cc3OC)N(C=O)C3[C@]45CCN4CC=C[C@@](CC)([C@@H](OC(C)=O)[C@]3(O)C(=O)OC)[C@H]45)C2)C1 (some centres not stated)	-4.23%	13.5%	12.3%	-1.15%	2.43%
Cc1ccc(CNC(=O)Cn2nc3n(C)c(=O)c4ccc(C(=O)NC5CCCCC5)cc4n3c2=O)cc1	0.358%	4.84%	3.39%	2.27%	1.34%
Cc1ccc(C)c(Cn2nc3n(Cc4ccccc4)c(=O)c4ccc(C(=O)NC(C)C)cc4n3c2=O)c1	5.41%	4.03%	5.17%	1.03%	2.01%
O=C(CC1COCCN1)N1CCC2(CCC(=O)N(CCc3ccccc3)C2)CC1 (configuration not stated)	-3.67%	-1.32%	-2.71%	-2.27%	-5.21%
CSc1nccc(N2CCC(c3nccn3Cc3cccnc3)CC2)n1	-3.71%	-0.976%	-14.2%	-7.65%	1.16%
CCCCOc1cc2oc(=O)cc(-c3ccccc3)c2cc1Cl	-0.627%	-0.476%	-0.488%	-6.23%	-4.46%
CC(C)CN1C(=O)N(Cc2ccccn2)C(=O)C12CCN(Cc1ccc3c(c1)CCO3)CC2	-4.47%	0.575%	0.859%	-5.88%	1.94%
Cc1ccc(NC(=O)Cn2nc3n(C(C)C)c(=O)c4ccc(C(=O)NC5CCCC5)cc4n3c2=O)cc1	3.34%	1.55%	2.38%	-1.06%	-2.69%
Cc1cnc(CC2CCCN(S(=O)(=O)c3ccccc3)C2)n1CC1CC1 (configuration not stated)	-3.6%	-1.89%	-18.4%	-29.3%	-18.5%
O=C(O)c1cc([N+](=O)[O-])ccc1NCCCc1ccccc1	-19.3%	6.07%	-1.97%	-7.63%	5.44%

— PubChem BioAssay AID1745853 (National Center for Advancing Translational Sciences (NCATS), 2022)
